First the molecules themselves.
B1: chr18:55223968:55224079:-|3pUTR|ENSG00000196628|unk|FALSE|unique (ssRNA)
RNA: GGGAGUUCUACAGUCCGACGAUCUAUAAAGCUUUGUUUGUCUAGUGCUCUUUUGCUAUAAAAUAGACUGUAGUACACCCUAGUAGGAAAAAAAAAAAACUAAAUUUAAAAAUAAAAAAUAUAUUUGGCUUAUUUUUCGCAGGACAACAGAGGAUUGAGCAUCA
B2: chr12:106239179:106239280:-|CDS|ENSG00000136026|msi1|FALSE|unique (ssRNA)
RNA: GGGAGUUCUACAGUCCGACGAUCGGACCAAGCCCAGGCCGCCCGUCUGCCUCCUCAGGACUUCCUGGACAGACUUUCUUCUCUAGACAACCUGAAAGCCUCAGUCAGCCAAGUGGAGGCGGACUUGAAAAUGCUCAGGACUGCCAACAGAGGAUUGAGCAUCA
B3: chr10:62095068:62095169:+|3pUTR|ENSG00000150347|msi1|FALSE|unique (ssRNA)
RNA: GGGAGUUCUACAGUCCGACGAUCCCAUUUGCUUCAAUUAAUUAUUUACCUUCCUGUGGAAUAAUAUAUAUAUAUAUAUUUAAUAGAACCAUAGAUAGACUAGUAGAAUUUAGAUUAUAAAUGUGUGAGUGCAGAUUAUCCUGCCAACAGAGGAUUGAGCAUCA
B4: ENSG00000160710:stop:overlap|stop_codon|ENSG00000160710|stop_codon|NA|stop_codon (ssRNA)
RNA: GGGAGUUCUACAGUCCGACGAUCGCUAUGGGAACUGGAUUAGCAAACCCCAGGAGGAAAAGAACUUUUAUCUCUGCCCAGUAUAGUAUGCUCCAGUGACAGAUGGAUUAGGGUGUGUCAUACUAGGGUGUGAGAGAGGUAGGUCAACAGAGGAUUGAGCAUCA
B5: chr20:54218986:54219149:+|CDS|ENSG00000101132|unk|total|mutant (ssRNA)
RNA: GGGAGUUCUACAGUCCGACGAUCAAAUUUGCAAGAAGAAAUUGACGCCUCCGAAUCCAGAGUGGAAUCAAUUCAGCGAGUGUCCGCAGAUUUGAAAGUUCAGUUGUAUGCAAAAUUCGGGAGCAACAUAAACCUUGAAGCUGACAACAGAGGAUUGAGCAUCA
B6: chr3:15667380:15667481:-|3pUTR|ENSG00000206560|msi1|total|mutant (ssRNA)
RNA: GGGAGUUCUACAGUCCGACGAUCUAUACAUAAAAGAUGACAUCUGAAAUAUCUGAUGUGUAUUAUAAUACCAGCUUCUGCUCCCGAACUACUUUGGGUGAAAUGGUGGUAACCGCAAAUGACCUCCUUUAACAAGACACUCAUCAACAGAGGAUUGAGCAUCA

Some of the results follow.

For this assay, the target named is MSI1 full-length (mouse, UniProt Q61474 1-362). The experiment in a line: nsRBNS (natural sequence RNA bind-n-seq); RBNS binding buffer (assumed for nsRBNS): 25 mM Tris pH 7.5, 150 mM KCl, 3 mM MgCl2, 0.01% Triton X-100, 500 ug/ml BSA, 20 U/ml SUPERase-In, 4 C; UNK is unkempt and MSI1 is Musashi-1; names of the RNAs are library labels; protein concentration not given here; high values mean tight binding.
Chain of UniProt Q61474 (Q61474 whole entry): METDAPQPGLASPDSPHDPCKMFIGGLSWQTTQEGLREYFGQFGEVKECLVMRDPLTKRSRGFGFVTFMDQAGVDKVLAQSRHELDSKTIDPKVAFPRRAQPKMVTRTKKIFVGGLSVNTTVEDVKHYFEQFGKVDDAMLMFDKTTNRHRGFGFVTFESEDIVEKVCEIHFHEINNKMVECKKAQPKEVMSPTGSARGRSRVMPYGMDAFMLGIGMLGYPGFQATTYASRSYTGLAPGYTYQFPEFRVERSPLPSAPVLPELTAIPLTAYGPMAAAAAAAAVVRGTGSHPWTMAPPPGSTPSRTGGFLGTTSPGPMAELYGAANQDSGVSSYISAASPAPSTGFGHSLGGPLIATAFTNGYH
For B1, the binding signal was found to be 11.5 enrichment R.
B2 returned a binding signal of 0.773 enrichment R.
Consider B3, for which the binding signal was 21.1 enrichment R.
B4 showed a binding signal of 1.25 enrichment R.
As for B5, the binding signal came to 0.293 enrichment R.
For B6 the value was 0.285 enrichment R.
